# From PubChem BioAssay AID488969 (Vanderbilt High Throughput Screening Facility, 2010)
# In all, about 110,000 compounds were measured (“z-score”: median about -0.1, highest 2% from about 2 on). The list shows a part of the results. Activity calls are given as the source filed them.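 The calls were made as follows: active = z-score in the third read window above 3 or below -3; inactive = the rest.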
# Molecular target: Metabotropic glutamate receptor 8 (Rattus norvegicus) (UniProt P70579)
# Test: rat mGluR8 modulators via GIRK flux, primary screen, cell-based, thallium flux, HTS (AID 488969)
# Conditions: HEK293 rat mGluR8, GIRK (G protein-gated inwardly rectifying potassium channel) thallium flux, FluoZin2; at 10 µM; stronger effect = higher value; submaximal glutamate (EC20) added with thallium
# UniProt P70579, sequence (P70579 whole entry, looked up): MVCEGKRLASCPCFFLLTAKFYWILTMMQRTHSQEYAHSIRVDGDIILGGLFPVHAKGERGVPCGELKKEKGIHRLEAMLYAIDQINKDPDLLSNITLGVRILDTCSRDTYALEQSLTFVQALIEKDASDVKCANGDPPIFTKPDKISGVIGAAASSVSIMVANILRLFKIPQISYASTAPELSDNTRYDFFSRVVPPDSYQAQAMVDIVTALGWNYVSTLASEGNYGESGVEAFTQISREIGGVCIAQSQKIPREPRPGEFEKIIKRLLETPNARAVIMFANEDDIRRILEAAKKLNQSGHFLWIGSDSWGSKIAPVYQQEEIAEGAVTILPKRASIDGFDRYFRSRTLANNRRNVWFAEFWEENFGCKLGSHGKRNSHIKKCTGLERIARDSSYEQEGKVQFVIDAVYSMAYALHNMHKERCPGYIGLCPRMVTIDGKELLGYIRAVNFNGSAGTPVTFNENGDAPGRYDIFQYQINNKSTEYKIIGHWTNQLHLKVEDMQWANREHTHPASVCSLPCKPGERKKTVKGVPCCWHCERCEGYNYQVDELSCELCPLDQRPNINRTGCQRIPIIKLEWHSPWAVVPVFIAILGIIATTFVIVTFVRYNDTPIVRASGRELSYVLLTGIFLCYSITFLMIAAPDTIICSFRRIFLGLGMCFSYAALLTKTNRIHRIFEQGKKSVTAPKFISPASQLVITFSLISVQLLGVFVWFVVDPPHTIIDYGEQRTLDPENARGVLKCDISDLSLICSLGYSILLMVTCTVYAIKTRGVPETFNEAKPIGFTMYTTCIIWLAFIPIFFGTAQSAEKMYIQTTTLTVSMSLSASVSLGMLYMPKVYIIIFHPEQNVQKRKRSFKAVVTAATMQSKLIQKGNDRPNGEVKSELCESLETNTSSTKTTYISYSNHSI
row,Compound,z-score
1,COc1ccccc1N1CCN(C(=O)c2ccccc2Oc2ccccc2)CC1,-0.0128
2,CCCCC(=O)NN(C)c1nc(-c2ccccc2)nnc1C(F)(F)F,-0.236
3,COc1ccc(-c2cc(C(F)(F)F)n3nc(C(=O)NCCCn4ccnc4)cc3n2)cc1,-0.476
4,COc1c(C)cccc1C(=O)Nc1ccc(N2CCOCC2)c(Cl)c1,-0.326
5,CN(C)c1ccc(C2CC(c3ccccc3)=Nc3nc(-c4ccccc4)cn32)cc1 (stereo not drawn),-0.176
6,O=C(Cc1cc(=O)[nH][nH]1)N/N=C/c1c(Cl)cccc1Cl,-0.452
7,CCCc1nnc(NC(=O)c2cccc(OC)c2)s1,-0.102
8,Cc1ccc(C)c(NC(=O)C(=O)NCc2ccccn2)c1,-0.0364
9,CC1(C)OC2OC(COC(=O)c3ccc([N+](=O)[O-])cc3)C3OC(C)(C)OC3C2O1 (stereo not drawn),-0.286
10,Cc1cc(C(=O)Nc2ccccc2N2CCOCC2)ccc1[N+](=O)[O-],-0.321
11,COC(=O)c1cc2c(ccn2-c2ccc(F)cc2)n1Cc1ccc(OC(C)=O)cc1,1.2
12,CCOC(=O)/C(=C\c1ccc([N+](=O)[O-])cc1)C(=O)c1cc(C(C)=O)c(Nc2ccccc2)s1,-0.156
13,CCC(C)Oc1nc(C)cc(C)c1S(=O)(=O)c1ccccc1C (stereo not drawn),-0.0966
14,CCOc1ccccc1N(CC(=O)NC1CCCCC1)C(=O)CCCC(=O)Nc1ccccn1,-0.541
15,Cc1ccc(OC(=O)C(C)c2cccc(C(=O)c3ccccc3)c2)cc1 (stereo not drawn),-0.0213
16,O=C(CSc1nnc2scc(-c3ccc(F)cc3)n12)NCc1ccco1,-0.14
17,CC(Sc1nc(-c2ccccc2)cc(C(F)(F)F)n1)C(=O)Nc1sc2c(c1C#N)CCC2 (stereo not drawn),-0.136
18,COc1ccc(-n2nc(C(=O)NCC(=O)NCc3ccco3)c3ccccc3c2=O)c(OC)c1,0.212
19,Cc1ccc(NS(=O)(=O)c2ccc(C(=O)N3CCN(c4ccccn4)CC3)cc2)cc1,-0.241
20,CC1(C)C(=O)NCCN1C(=O)CCC(=O)O,0.302
21,Cc1ccc(-c2noc(CSc3nnc(Cc4ccccc4)n3-c3cccc(C)c3)n2)cc1,-0.182
22,O=C(CNC(=O)c1ccco1)Nc1cc(Cl)ccc1N1CCOCC1,0.243

row,Compound,z-score
1,COC(=O)CCc1sc(Nc2ccccc2)nc1-c1ccc(OC)cc1,-0.13
2,CCOc1ccc(-c2c(C(=O)N/N=C/c3ccc(OC(C)C)cc3)nnn2-c2nonc2N)cc1,-0.219
3,CCCN(CCC)CCCNC(=O)c1cc2c(=O)n(C)c3ccccc3c2n1C,active: 4
4,CC(=O)Nc1ccc(/C(C)=N/NC(=O)CN(c2ccccc2Br)S(C)(=O)=O)cc1,0.622
5,O=C(Oc1cc(=O)n2ccccc2n1)c1ccccc1,-2.09
6,CC(=O)Nc1cc(C(=O)c2ccccc2)ccc1N1CCOCC1,0.189
7,Cc1cccc(C(=O)NC(=S)Nc2ccccc2C(F)(F)F)c1,active: 3.38
8,O=C(Nc1ncc2c(n1)CC(c1ccco1)CC2=O)c1ccc(Cl)cc1 (stereo not drawn),-0.777
9,COc1cc(NC(=O)c2cc(-c3cccnc3)nc3ccc(C)cc23)c(OC)cc1Cl,-1.58
10,CCOC(=O)c1sc(NC(=O)c2cccs2)cc1C,-0.119
11,O=C(c1ccco1)N1CCN(C(c2ccc(Cl)cc2)c2nnnn2CC2CCCO2)CC1 (stereo not drawn),1.13
12,CCN1CCN(C(C(=O)NC2CCCC2)c2ccc(Cl)cc2)CC1 (stereo not drawn),0.0777
13,CCOC(=O)Cc1c(C)c2ccc(N(CC)CC)cc2oc1=O,-1.32
14,COc1cc(/C=N/n2c(SC)nnc(C(C)(C)C)c2=O)ccc1O,-0.497
15,O=C(Nc1ccccc1)N(Cc1cccs1)C1CCCC1,-0.492
16,CCOCCCNC(=S)N1C2CCC1CC(NC(=O)NC1CCCCC1)C2 (stereo not drawn),-0.286
17,COc1ccc(Cc2nc3ccc(S(=O)(=O)N4CCOCC4)cc3[nH]2)cc1,-0.193
18,CCOC(=O)N1CCN(C(=O)Nc2ccc3nccnc3c2)CC1,0.657
19,O=C(Oc1ccc2cc(Br)ccc2c1)c1cccnc1,-0.445
20,CCC(C)c1ccccc1NC(=O)COC(=O)c1ccc(N2CCCC2)c([N+](=O)[O-])c1 (stereo not drawn),-0.0795
21,Cc1nc(SCc2ccc(O)c([N+](=O)[O-])c2)n[nH]1,-0.228
22,CC(SCc1ccccc1)C(=O)N/N=C/c1cc2c(cc1Br)OCO2 (stereo not drawn),-0.397

row,Compound,z-score
1,CCC1S/C(=C(\C#N)C(N)=O)N(c2ccc(F)cc2)C1=O (stereo not drawn),0.084
2,Cc1nc(-c2ccccc2)sc1-c1nc(-c2ccccc2)ncc1S(=O)(=O)c1ccccc1,-0.0308
3,O=S(=O)(c1ccc2c(c1)OCCO2)N(Cc1ccc(F)cc1)Cc1nnc(-c2cccs2)o1,-0.203
4,CN=C1S/C(=C\c2cc(C)n(-c3ccccc3F)c2C)C(=O)N1C,1.87
5,CCCc1nn2c(=O)c(C(c3ccc(C)cc3)c3c(O)nc4sc(CCC)nn4c3=O)c(O)nc2s1,-0.14
6,Cc1cccc(NC(=O)CSc2nnc(-c3ccco3)o2)c1,-0.435
7,CCCCOc1ccccc1C1NC(=O)NC(C)=C1C(=O)OCCOC (stereo not drawn),-0.347
8,CN(CC(=O)NC1CCCCC1)S(=O)(=O)c1cccc2nsnc12,-0.48
9,CCCCNC(=O)Cn1cnc2sc(C(=O)OCC)c(C)c2c1=O,-0.518
10,Cc1onc(-c2ccccc2)c1C(=O)N1CCN(C/C=C/c2ccccc2)CC1,-0.328
11,CSc1ncccc1-c1nc2ccccc2[nH]1,-0.0907
12,COc1cc(NC(=O)c2ccc(Br)o2)c(C(=O)O)cc1OC,-0.481
13,CCOC(=O)CCSc1nc(C)c2cc(OC)ccc2n1,-0.0662
14,Cc1cccc(C)c1NC(=O)CNC(=O)CCC(=O)c1cccs1,-0.232
15,O=C(CC1NC2CCCCC2NC1=O)Nc1cccc(C(F)(F)F)c1 (stereo not drawn),0.497
16,Cc1c(C(=O)OC(C)C)[nH]c2c1C(=O)CC(C)(C)C2,-0.214
17,Cc1cc(C)cc(NC(=O)C(=O)NCc2ccccn2)c1,-0.179
18,OC(COc1c(Cl)cc(Cl)cc1Cl)CN1CCCCC1 (stereo not drawn),-0.0959
19,O=C(CN1CCN(Cc2ccccc2F)C1=O)NCCN1CCOCC1,0.267
20,CCOC(=O)COc1ccc(S(=O)(=O)Nc2ccc(C)cc2)cc1,-0.352
21,Cc1nnc(SCC(=O)Nc2cccc(C(F)(F)F)c2)[nH]c1=O,-0.424
22,Cc1cc(C)cc(Oc2nn[nH]n2)c1,-0.155

row,Compound,z-score
1,CCC(C)NC(=O)C1CCCN1S(=O)(=O)c1ccc(Cl)cc1 (stereo not drawn),-0.369
2,O=C1N=c2ccccc2=C1c1[nH]c(=S)[nH]c1O,0.0533
3,COc1ccccc1-n1cnc2cc(NS(=O)(=O)c3ccccc3)ccc21,-0.582
4,O=C(c1sc2ccccc2c1Cl)N(Cc1ccccc1Cl)C1CCS(=O)(=O)C1 (stereo not drawn),0.26
5,CCOC(=O)N1CCN(S(=O)(=O)c2cc(Cl)c(OC)cc2Cl)CC1,-0.748
6,Cc1ccc(OCCOC(=O)Nc2ccccc2)cc1,-0.215
7,O=C/C(=C\Nc1ccccn1)c1nc2cc(Cl)ccc2o1,0.215
8,COc1ccc(C)cc1NC(=O)C(OC(=O)c1ccc(Cl)c(S(=O)(=O)N(C)c2ccccc2)c1)c1ccccc1 (stereo not drawn),-0.0112
9,CCCNC(=O)Cn1cnc2sc(C(=O)Nc3cc(OC)c(OC)c(OC)c3)c(C)c2c1=O,-0.201
10,O=C(NCc1ccc(Cl)cc1)C(=O)NCC1OCCN1C(=O)c1cccs1 (stereo not drawn),-0.152
11,O=C(NCC(F)(F)F)Nc1cccnc1,-0.185
12,COc1ccc(S(=O)(=O)N(C)CC(=O)NC2CCCC2)cc1Cl,0.335
13,CCCS(=O)(=O)c1nc(S(=O)(=O)c2ccc(C)cc2)c(N2CCCC2)s1,-0.157
14,O=C(COc1ccc(Cl)cc1)NCCSc1ccccc1,0.915
15,Nc1nc2n(n1)C(c1ccccc1Cl)CC(c1ccc(F)cc1)N2 (stereo not drawn),0.896
16,Cc1ccc(N2C(=O)C(c3c(C)[nH]n(-c4ccccc4)c3=O)(C(F)(F)F)C3=C2CC(C)(C)CC3=O)cc1 (stereo not drawn),-0.207
17,CCCN(CCC)C(=O)c1ccc2c(c1)OCO2,0.0999
18,CCCCn1c(=O)[nH]c(=O)c2c1nc(-c1ccsc1)n2Cc1ccccc1,-0.249
19,O=C(Nc1ccccc1)c1cc(N2CCOCC2)nc2ccccc12,-0.137
20,CCc1nnc(NC(=O)/C=C/c2ccco2)s1,-0.152
21,COCCSc1ccccc1C(=O)N1CCOCC1,0.38
22,CC1CCN(S(=O)(=O)c2cccc(C(=O)NCc3ccco3)c2)CC1,-0.129

row,Compound,z-score
1,COc1ccc(C(=O)c2coc3ccc(O)c(CN4CCOCC4)c23)cc1,-0.853
2,COc1ccccc1CNC(=O)COC(=O)[C@H](Cc1c[nH]c2ccccc12)NC(=O)c1cccs1,-0.482
3,Cc1cc(C)n(-c2ccc(C(=O)OCC(=O)Nc3ccc(S(=O)(=O)N4CCCCC4)cc3)cc2)n1,-0.00692
4,O=C(COC(=O)c1c2c(nc3ccccc13)CCCC2)c1cccs1,-0.823
5,COc1ccc(S(=O)(=O)N(Cc2ccccc2)Cc2nc3ccccc3c(=O)[nH]2)cc1,-0.148
6,COc1cccc(C(=O)CSc2nc3ccccc3n2CC(=O)N(C(C)C)C(C)C)c1,0.641
7,COc1ccc(NS(=O)(=O)c2cc(OC)ccc2NC(=O)c2cc(C)oc2C)cc1,-0.812
8,c1cc(C2CCCCC2)ccc1Oc1nc(N2CCOCC2)nc(N2CCOCC2)n1,-0.518
9,O=C(O)C1Cc2ccccc2CN1C(=O)c1ccccc1Cl (stereo not drawn),0.457
10,CN1CCN(c2ccc(C(=O)c3ccc(F)cc3)cc2)CC1,-0.0611
11,CC(C)C(=O)Nc1ccc(NC(=O)c2ccccn2)cn1,0.221
12,C=CCn1c(SCCCCCC)nc(O)cc1=O,-0.819
13,COc1cccc(C(=O)CSc2nc3cccnc3n2C)c1,1.24
14,O=C(O)c1cc(Cl)c(Cl)cc1C(=O)Nc1cccc2ncccc12,0.0614
15,COC(=O)CC1C(=O)NCCN1C(=O)NC1CCCCC1 (stereo not drawn),-0.062
16,CCOC(=O)c1cccc(NC(=O)CSc2nnc(C3CCCCC3)n2C)c1,active: -3.49
17,COc1ccc(C/C(N)=N/OC(=O)Cc2ccccc2)cc1,-0.0536
18,CCN(CC)C(=O)CSc1nc2ccccc2c(=O)n1OC,-0.225
19,CCOc1ccc(-n2c(SCc3cc(=O)oc4cc(C)c(C(C)C)cc34)nnc2-c2cccnc2)cc1,-0.176
20,COC(=O)C1=NN(N=O)C2(CC(=O)N(c3cc(C)cc(C)c3)C2=O)C1 (stereo not drawn),-0.194
